Test results reported in the supplement of paper PMC3334620.
Whole data set: some 33,000 sequences, median “E-score (-0.5 to 0.5)” near -0.016, cut for the highest 2% near 0.31. The list shows a part of the results.

molecular target: Cst6 (UniProt P40535); assay: PBM E-score (8-mer binding enrichment) (E-score (-0.5 to 0.5)); higher = stronger / more preferred TF binding; most listed sequences are background and not binding sites; conditions: protein concentration: 200 nM; construct: GST-DNA-binding domain
Outline: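 E-scores (a modified Wilcoxon-Mann-Whitney statistic) were assigned by the Universal PBM Analysis Suite to every ungapped eight-base word pooled with its reverse complement. The input came from universal all-10-mer Agilent arrays made double-stranded by primer extension and probed with GST-tagged yeast transcription factors at about 100-200 nM. Fluorescent anti-GST detected bound protein, and masliner normalised the scans.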

Sequence | PBM E-score
AGGTCGCA | -0.184
AGGAGGGA | -0.279
GTTTCAAA | 0.025
CATCGTGG | -0.2
ACCGTGGG | -0.275
TGCAGTAA | 0.00191
GTCCGGAA | -0.183
ACTAGGCA | -0.0799
ACAGAGAT | 0.178
CACGCACG | 0.00075
ATTGGGTG | 0.169
ATTTTGCC | 0.134
ATCACTAC | 0.129
TGTCTTAA | 0.0288
AGTTCGGA | -0.054
ATTTGCAA | 0.124
GGAACGCC | -0.161
ACGGCCTG | -0.00375
CCACCTGA | -0.109
AACACCGC | -0.177
AAAATCAA | 0.0708
ACTGCGTG | -0.092

Sequence | PBM E-score
GCAATCTA | 0.0285
GCAGCTCA | -0.018
CAGCGATC | -0.0545
TGATAACA | 0.247
GTCACTCA | 0.315
CAGGCGGA | 0.0302
TAAAGAGA | 0.0905
GTCCAACA | -0.0765
CTTATGGC | -0.087
AAGACCGT | -0.21
GCGCCTCC | -0.00818
TAACTCCA | -0.195
CTAGCCGA | -0.215
AGTCCCGA | -0.259
CTCGCTGC | -0.105
GGGCTTTA | -0.303
CACTTGTC | -0.0855
ACGCTGAA | -0.027
AGCATCAA | 0.178
ACGTCCGG | 0.102
AGTTAGGC | -0.0709
AACGTCAT | 0.489

Sequence | PBM E-score
CACGTTGA | 0.0783
GGTTCGGA | -0.234
AGCAAACG | 0.0384
ATGAGCGA | 0.133
ATTTAACC | -0.0172
GTTTAGCA | 0.0457
TCTACAGA | -0.0513
AAGCGAGA | -0.0271
ACCTCGGA | -0.0521
GCGGCACA | 0.176
GACCCGGC | -0.204
CAAATGAC | 0.248
AATAGCAC | -0.239
GCGTAGTA | 0.0269
AACTCAAC | 0.0159
GCCAGGCC | -0.334
GTCATCAA | 0.385
ATGGGATG | -0.209
ACCTAAGG | -0.081
ATTTTCGC | 0.167
CTGGCACA | -0.162
AGTTGAAA | 0.0658

Sequence | PBM E-score
CGTTTTGA | 0.189
CCGACAAG | -0.0755
ATATGTGA | 0.157
CCCTCTCC | -0.383
CCAGTGGA | -0.139
CATCTGCG | -0.146
AGATGCGA | -0.148
CTCCGGGA | -0.216
CCAAGAGA | -0.0809
TCGTGGAA | 0.128
AAGAAGCC | 0.115
CGAGATTA | 0.167
GAGTAATA | 0.23
ACATTACT | 0.183
AGACTCTC | -0.289
CCATTAAC | 0.163
TACCTAAA | 0.14
GGGCGGAC | -0.365
CTGTGCGC | -0.0914
GTTGAAAC | 0.0235
